# According to article PMC6919601, “Identification of Plasmodium dipeptidyl aminopeptidase allosteric inhibitors by high throughput screening” (PLoS ONE, 2019):
# In all, about 110,000 compounds went through this assay and about 230 (0.21%) showed an effect of 50% or more. This is one part of the list.
# Biological target: DPAP1 (Plasmodium falciparum, UniProt Q8IIJ9)
# Assay: primary screen, percent inhibition; read by cleavage of a fluorogenic dipeptide substrate; higher = more effect of the substance
# Design: species or system P. falciparum D10 trophozoite lysates; single well
# 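Further: 30 min substrate incubation versus DMSO and 10 µM JCP410 controls.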
# Chain of DPAP1 (Q8IIJ9 whole entry, looked up): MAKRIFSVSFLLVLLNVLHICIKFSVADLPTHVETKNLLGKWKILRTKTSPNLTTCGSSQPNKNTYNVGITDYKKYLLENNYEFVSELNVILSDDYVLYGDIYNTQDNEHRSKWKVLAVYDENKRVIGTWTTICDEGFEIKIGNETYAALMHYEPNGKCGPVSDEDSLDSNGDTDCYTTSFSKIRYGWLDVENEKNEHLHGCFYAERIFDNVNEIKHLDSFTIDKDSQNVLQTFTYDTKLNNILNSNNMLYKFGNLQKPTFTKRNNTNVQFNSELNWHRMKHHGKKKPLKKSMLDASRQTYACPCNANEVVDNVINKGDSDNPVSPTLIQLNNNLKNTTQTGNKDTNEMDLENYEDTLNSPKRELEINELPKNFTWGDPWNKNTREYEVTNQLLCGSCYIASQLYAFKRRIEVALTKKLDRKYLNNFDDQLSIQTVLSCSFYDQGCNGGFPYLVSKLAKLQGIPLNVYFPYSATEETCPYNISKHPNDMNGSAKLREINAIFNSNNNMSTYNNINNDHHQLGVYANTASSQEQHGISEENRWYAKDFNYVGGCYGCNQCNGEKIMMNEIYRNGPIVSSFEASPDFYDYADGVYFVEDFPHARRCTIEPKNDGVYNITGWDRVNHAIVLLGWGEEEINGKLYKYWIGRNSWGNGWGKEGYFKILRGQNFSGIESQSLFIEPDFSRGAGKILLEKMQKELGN
row,SMILES,% Inhibition @ 10 uM [%]
1,CCOCCCNc1nc2ccccc2n2nnnc12,-0.522
2,CCOC(=O)C1=C(C)NC(=O)N(C(=O)Cc2ccccc2)C1c1cccc(OC2CCCC2)c1 (centres unmarked),-1.24
3,CCOc1ccc(NC(=O)c2ccccc2NC(C)=O)cc1,2.58
4,O=C1C2C3CCCN3C3(C(=O)c4ccccc4C3=O)C2C(=O)N1c1ccc(F)c(Cl)c1 (centres unmarked),-0.992
5,Clc1cccc(Cl)c1-c1nnc2ccc3ccccc3n12,-0.267
6,Cc1cccc(CCNS(=O)(=O)c2ccc(S(=O)(=O)N3CCOCC3)cc2)c1,8.37
7,CCOc1ccc(C2CC(=O)N3CN(Cc4ccco4)CSC3=C2C#N)cc1 (centres unmarked),43.4
8,Cc1ccn2c(-c3csc(Nc4ccc(N)cc4)n3)c(C)nc2c1,2.65
9,Cc1ccn2cc(-c3ccc(F)cc3)cc2c1,-0.864
10,CCOc1cc(CN2CCN(C)CC2)ccc1O,2.33
11,Cc1cccc(CCNc2nc3ccccc3c3nc(-c4cccnc4)nn23)c1,-2.42
12,CC(=O)Nc1cc(Cl)c2oc(-c3ccc(Cl)cc3Cl)nc2c1,-1.5
13,Cc1ccc(Cn2ncc3c(NCCCN4CCOCC4)ncnc32)cc1,-1.89
14,O=C(CSc1ccc(Br)cc1)Nc1ccccc1N1CCOCC1,1.35
15,Cc1nc2nc(-c3ccc(Cl)cc3Cl)nn2c(C)c1CCC(=O)O,-1.03
16,Cc1cc(Br)ccc1NC(=O)C1CC(=O)N(c2ccc(OC(C)C)cc2)C1 (centres unmarked),-4.14
17,CCCCSc1cc(C)nc2ncnn12,0.906
18,COc1cc(OC)cc(-c2nc(-c3ccccc3)no2)c1,-3.77
19,CCO/C(O)=C1\C(CC)=NC2=C(C(=O)CCC2)C1c1ccccc1OCC (centres unmarked),-2.87
20,CC1CCN(C(=O)CSc2c3c(nc4ccccc24)CCC3)CC1,-11
21,c1coc(C2Nc3c(ccc4ccccc34)C3OCCC23)c1 (centres unmarked),-5.96
22,COc1ccc(-c2nc3ncnc(O)c3nc2-c2ccc(OC)cc2)cc1,-1.29
23,O=C(NCCc1ccccc1)C1=CCN(S(=O)(=O)c2ccccc2)CC1,5.09
24,O=C1CCCC2=C1C(c1ccc(F)cc1)C1=C(CCCC1=O)O2,1.64
25,Cc1ccc(-c2nonc2NC(=O)CC(C)C)cc1,-6.56
26,C=CCNC(=O)c1cc(-c2ccc(Cl)c(Cl)c2)on1,-8.56

row,SMILES,% Inhibition @ 10 uM [%]
1,COc1cccc2c1cc1c(=O)n(CC(=O)NC(C)c3ccccc3)nc(C)n12 (centres unmarked),4.84
2,COc1ccc(CN(Cc2ccco2)C(=O)COc2ccccc2C)cc1,-2.84
3,CCOC(=O)c1c(/N=C/C2C(=O)NC(=O)NC2=O)sc2c1CCC2,-5.01
4,COC(=O)c1c(C)cc(O)c(C)c1O,-0.0404
5,O=C(CNS(=O)(=O)c1ccc(Br)cc1)N1CCN(c2ccc(F)cc2)CC1,10.8
6,Oc1ccc(NCc2cccc(Br)c2)cc1,3.05
7,COc1ccc(-c2nc3cc(N)ccc3o2)cc1Cl,-5.82
8,O=C(CN1CCc2ccccc2C1)c1ccc2cc[nH]c2c1,0.66
9,O=C(NC(=C(Cl)Cl)S(=O)(=O)c1ccc(Cl)cc1)c1ccc(Cl)cc1,-1.84
10,O=[N+]([O-])c1cccc(C2=NOc3cc(Br)ccc3N2)c1,-4.66
11,Clc1ccc(N2CCN(Cc3ccccc3)CC2)cc1,-3.65
12,Cc1ccc(C2CCN(C(=S)NCC3CCCO3)C2)cc1 (centres unmarked),-0.971
13,CC1CCN(c2ccc3nnc(CCC(=O)NCCC4=CCCCC4)n3n2)CC1,0.257
14,O=C1N=C(c2ccccc2)S/C1=C\c1ccccc1,3.96
15,OCCCc1cn(-c2ccccc2)c2ccccc12,4.93
16,CCOC(=O)c1c(C)[nH]c(C)c1S(=O)(=O)NCCN1CCOCC1,-5.69
17,Cc1cc(Br)ccc1OCC(=O)NC1CCCCC1,-1.38
18,O=C1S/C(=C\c2cccc(Cl)c2)C(=O)N1Cc1ccccc1,-0.769
19,COc1ccc(CNC(=O)c2ccc3nc(N4CCOCC4)sc3c2)cc1,4.83
20,COc1ccc(NC(=O)c2ccc(NC(=O)C3CCCCC3)cc2)cc1,-2.84
21,c1ccc(OCCCCN2CCOCC2)cc1,-0.546
22,Fc1ccc(C2=CCN(C3CCN(Cc4ccccc4)CC3)CC2)cc1,-3.8
23,CSc1nc(Oc2ccc(Cl)cc2)cc(-n2ncc(C#N)c2N)n1,0.751
24,COc1ccc(OC)c(C2C(C#N)=C(N)Oc3[nH]nc(C)c32)c1 (centres unmarked),-2.56
25,Cc1ccccc1Cn1c(=O)sc2ccccc21,5.09
26,C#CCSc1nc(-c2ccccc2)cc(C(F)(F)F)c1C#N,-10.2

row,SMILES,% Inhibition @ 10 uM [%]
1,Cc1cc2c(n1-c1ccc(C(=O)NCc3ccc4c(c3)OCO4)cc1)CCCC2,2.47
2,COc1ccccc1NC(=O)C1=C(C)N=C2CCCC(O)=C2C1c1cc(OC)c(OC)c(OC)c1 (centres unmarked),-0.318
3,CN(C)/C=N/c1ccc2nn(-c3ccccc3)nc2c1,3
4,FC(F)Oc1ccc(-c2nn[nH]n2)cc1,1.76
5,Cc1ccc2ccc(C3C(=O)c4ccccc4C3=O)nc2c1,-2.12
6,O=[N+]([O-])c1cccc(C2NCCc3[nH]cnc32)c1 (centres unmarked),-0.902
7,Cc1ccc(NC(=O)CN(c2ccccc2F)S(C)(=O)=O)c(C)c1,0.324
8,Cc1nn(C(F)F)c(C)c1C(=O)Nc1ccn(Cc2ccccc2)n1,-5.81
9,O=S(=O)(Nc1cc(Cl)c(O)c(Cl)c1)c1ccc2ccccc2c1,-4.02
10,Cc1ccc(NCN2C(=O)C3CCC(C)CC3C2=O)cc1Cl (centres unmarked),2.19
11,O=S(=O)(c1ccc(Cl)s1)N1CCN(c2cccc(Cl)c2)CC1,-0.25
12,Cc1nnc(N2C(=O)C(O)=C(C(=O)c3cccs3)C2c2cccc(Oc3ccccc3)c2)s1 (centres unmarked),42.3
13,Cc1ccc(C2=NS(=O)(=O)N(C)C(C(=O)N3CCC4(CC3)OCCO4)=C2)cc1,-6.83
14,O=C(CSc1nc2cccnc2[nH]1)N1CCNC1=O,3.24
15,CSc1ccc(/C=c2\sc3nc(=O)c(Cc4ccc(C)cc4)nn3c2=O)cc1,-0.499
16,CN(CC(=O)NCc1ccc2c(c1)OCO2)S(=O)(=O)c1ccc2[nH]c(-c3ccccc3)nc2c1,-3.77
17,COc1cccc2cc(S(=O)(=O)c3ccc(Br)cc3)c(=O)oc12,-3.1
18,O=C1CC(c2ccco2)CC(=O)C1=CNCCN1CCNCC1 (centres unmarked),-0.864
19,Cc1ccc2cc(C)c(Nc3ccc(C(=O)O)cc3)nc2c1,-2.35
20,CS(=O)(=O)c1ncc(Cl)c(C(=O)Nc2sc3c(c2C(=O)NCc2ccco2)CCCC3)n1,0.569
21,C=CCNC(=O)C1CCCN(c2cnccn2)C1 (centres unmarked),-4.67
22,Cc1c2cnn(CC(=O)N3CCc4ccccc4C3)c(=O)c2c(C)n1Cc1ccccc1F,-5.81
23,Nc1ccc(S(=O)(=O)N2CC(=O)NC(=O)C2)cc1,1.8
24,CN(Cc1ccccc1)S(=O)(=O)c1ccc2ncc(C(=O)NCc3cccs3)c(O)c2c1,-7.57
25,CCOC1=CC2=C(CC(C)(C)CC2=O)OC1N(C)C (centres unmarked),0.937
26,CN(Cc1ccccc1)S(=O)(=O)c1ccc(NC(=O)c2ccccc2Br)cc1,28.8

row,SMILES,% Inhibition @ 10 uM [%]
1,CCN(CC)CCNC(=O)c1ccc(CS(=O)(=O)c2ccccc2C)o1,5.34
2,COc1ccc(CN2CCN(Cc3ccccc3Br)CC2)c(OC)c1,-8.37
3,Cc1ccc(-c2nn(C)c(=O)c3ccccc23)cc1S(=O)(=O)N1CCC(Cc2ccccc2)CC1,5.3
4,CCN1CCCC1CNC(=O)Cn1cnc2c(nc3n2CCCCC3)c1=O (centres unmarked),3.95
5,O=C(OCc1ccco1)c1sc2ccccc2c1Cl,-0.189
6,COc1cc(CNC2C3CC4CC(C3)CC2C4)ccc1OCC(=O)NC(C)(C)C (centres unmarked),1.64
7,NC(CCCCCC(=O)O)C1CCCCCC1 (centres unmarked),-0.969
8,O=C1C2C3C=CC(C3)C2C(=O)N1c1ccc2ccccc2n1 (centres unmarked),-3.28
9,NC1=NC(=O)CC(c2ccc(F)cc2)N1 (centres unmarked),0.351
10,O=C(CSc1ccc2nnc(CCNS(=O)(=O)c3ccccc3)n2n1)N1CCCC1,2.22
11,O=C(CCS(=O)(=O)c1ccc2ccccc2c1)N1CCCC1,-4.91
12,Cc1ccc(NCC(O)COc2ccccc2)cc1C (centres unmarked),-0.128
13,Cc1cccc(OCc2nn3c(Cc4ccccc4)nnc3s2)c1,3.38
14,Clc1ccc(-c2nnc3ccccn23)cc1,1.32
15,Cc1ccc2oc(O)cc(=O)c2c1,-3.44
16,Oc1ccnc2c1ccc1c(O)ccnc12,2.55
17,COc1ccccc1/C=c1\sc2nc(-c3ccc(OC)c(OC)c3)nn2c1=O,19.9
18,COc1ccc(/C=C(/NC(=O)c2ccc(C)cc2)C(=O)N2CCCCCC2)cc1OC,-3.9
19,CCCCN(CC)CCCNC(=O)c1ccc(CS(=O)(=O)c2c(Cl)cccc2Cl)o1,-4.71
20,Cc1cccc(NC2=NC(=O)/C(=C\c3ccc(O)cc3)S2)c1,-1.98
21,COc1cc(C)c(C)cc1S(=O)(=O)NC1CC(C)(C)NC(C)(C)C1,0.24
22,Cn1c(=O)c2c(nc(N3CCN(c4ccc([N+](=O)[O-])cc4)CC3)n2C)n(C)c1=O,4.22
23,CC1CCCCC1NC(=O)Cn1nc(-c2ccc(Cl)cc2)ccc1=O (centres unmarked),3.24
24,COc1ccc(Nc2ccccc2Cl)c(C(=O)O)c1,2.49
25,Cc1cccc(C(=O)N(C)Cc2ccccc2)c1,-6.86
26,Cc1ccc(NC(=O)Nc2ccc(Cl)cc2)cc1Br,-0.622
